# Reference: PubChem BioAssay AID1347073 (National Center for Advancing Translational Sciences (NCATS), 2019)
# The whole screen tested about 45,000 compounds, of which about 200 (0.44%) were called active. About 7% were inconclusive and are not listed. Calls come from the whole dose curve; as a rule, active = well fitted activation curve with a large enough effect; inconclusive = small, poorly fitted or top-dose-only effect; inactive = no such curve, though single readings can be large or run the other way. This is one part of the list.
# Assay: qHTS of TDP-43 Inhibitors: NCGC Sytravon Library Screen; note: 0% is about no effect; nearly all actives have a fitted effect of over 55% in size
# Settings: yeast TDP-43 toxicity rescue, BacTiter-Glo growth, 24 h; series mostly up to 46.1 µM; growth rescue (activation): at the top concentration
# Summary of the method: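 TDP-43-expressing yeast, pregrown in raffinose, seeded at OD600 0.02 in galactose medium with compound for 24 hr at 30 deg C. Growth read by BacTiter-Glo luminescence, so rescue of toxicity appears as activation.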
row,Structure (SMILES),growth rescue (activation)
1,CCn1c(=O)c2sccc2n(CC(=O)NC2CCCCC2)c1=O,inactive: 14.3%
2,O=[N+]([O-])c1ccc(O)c(/C=N/Nc2ccccn2)c1,inactive: -92.7%
3,O=C1OCCN1CC(=O)N1CCc2c([nH]c3ccccc23)C1c1ccccn1 (stereo not drawn),inactive: 6.25%
4,COc1ccc(NC(=O)/C(=C/c2cccnc2)NC(=O)c2cccs2)cc1,inactive: 4.1%
5,CCC(C)NC(=O)CN(C1CCCCC1)S(C)(=O)=O (stereo not drawn),inactive: -13.7%
6,CC(O)(c1cccnc1)c1nc(-c2cccc3cccnc23)cs1 (stereo not drawn),inactive: 3.62%
7,Cn1cnnc1SCC(=O)Nc1ncc([N+](=O)[O-])s1,inactive: -13.7%
8,Cc1cccc(C)c1NC(=O)C1(NC(=O)Cn2cccc([N+](=O)[O-])c2=O)CCCCC1,inactive: -34.6%
9,Cc1noc(C)c1CSc1nnc2n(-c3ccccc3)c(=O)c3ccccc3n12,inactive: 30.8%
10,COc1ccccc1-c1cc(N)n(S(=O)(=O)c2cccc3nsnc23)n1,inactive: 23.4%
11,OCCNCc1ccc(-c2ccccc2)cc1,inactive: -15.9%
12,Cc1ccc(C2(c3noc(CN(C)CCO)n3)CCCC2)cc1,inactive: 1.69%
13,COc1ccc2c(c1)C(C)CC(C)(C)N2C(=O)CSc1ncn[nH]1 (stereo not drawn),inactive: 5.62%
14,CC(C)c1ccccc1OCCNS(C)(=O)=O,inactive: 4.99%
15,CCN(CC)S(=O)(=O)c1ccc2c(c1)N(CC(=O)NCc1ccc(F)cc1)C(=O)CO2,inactive: 0.577%
16,Cc1nc2nc(C)c(NS(=O)(=O)c3ccc(Cl)s3)c(=O)n2[nH]1,inactive: 2.93%
17,Cc1cc(C(=O)Nn2c(-c3ccncc3)nc3ccccc3c2=O)ccc1[N+](=O)[O-],inactive: 14.1%
18,COc1ccccc1NC(=O)CSc1nc2nc(C)cc(C)c2c(=O)[nH]1,inactive: -12.9%
19,CCC(C)n1c(SCC(=O)NCCc2ccc(S(N)(=O)=O)cc2)nc2ccsc2c1=O (stereo not drawn),inactive: 4.04%
20,COc1ccccc1NS(=O)(=O)c1cccc(C(=O)N/N=C/c2ccccc2OCC(=O)O)c1,inactive: 22.1%
21,Cc1cc(C)c(C)c(S(=O)(=O)N[C@@H](C)C(=O)OCc2cc(=O)n3cc(Br)ccc3n2)c1C,inactive: -4.55%
22,CC(Oc1ccc(Cl)cc1Cl)C(=O)NCCC1=CCCCC1 (stereo not drawn),inactive: 15.2%
23,CCN(CC(=O)NCc1ccc(F)cc1)C(=O)C1CCN(S(=O)(=O)c2ccc(C(C)C)cc2)CC1,inactive: 3.52%

row,Structure (SMILES),growth rescue (activation)
1,CC(C)NC(=O)NC(=O)COC(=O)c1ncc(Cl)c(Cl)c1Cl,inactive: 22.4%
2,CC(C)(C)NC(=O)CCN(/N=C/c1ccc([N+](=O)[O-])o1)C1=NS(=O)(=O)c2ccccc21,inactive: 7.2%
3,CN(CP(=O)(O)CN(C)S(C)(=O)=O)S(C)(=O)=O,inactive: -15.8%
4,COc1cccc(NC(=O)CCNS(=O)(=O)c2cccc3nonc23)c1,inactive: 8.83%
5,CC(=O)C1=C(O)C(=O)N(c2ccccn2)C1c1ccccc1[N+](=O)[O-] (stereo not drawn),inactive: -10%
6,CC1CCCCN1C(=O)CCS(=O)(=O)Cc1ccccc1 (stereo not drawn),inactive: 8.52%
7,CCCCNC(=O)N1CCN(Cc2cccc(F)c2)CC1,inactive: -4.62%
8,Cc1nc2nc(SCC(=O)NCCCN3CCCCCC3)nn2c(C)c1Cc1ccccc1,inactive: -5.7%
9,O=C(COc1ccc(Cl)cc1Cl)Nc1ccccc1NS(=O)(=O)c1cccs1,inactive: -2.87%
10,COc1ccc(S(=O)(=O)N2CCOCC2)cc1C(=O)Nc1ccc2c(c1)OCO2,inactive: 21.5%
11,COc1cccc(NC(=O)C(C)SCc2ccccc2)c1 (stereo not drawn),inactive: 25.6%
12,Cc1ccc2ccc(S(=O)(=O)NCc3ccccn3)cc2c1,inactive: 23.3%
13,CC(C)(C)CC(C)(C)NC(=O)c1ccc2snnc2c1,inactive: 8.3%
14,O=C(N/N=C/c1cccnc1)c1cccc(N2CCCC2=O)c1,inactive: -7.7%
15,CC1CN(c2ccccc2)CCN1Cc1nc(Cc2ccccc2)no1 (stereo not drawn),inactive: 22.9%
16,O=c1c([N+](=O)[O-])c[nH]c2ccccc12,inactive: 2.86%
17,CC(=O)Nc1ccc(S(=O)(=O)NCC(=O)OCC(=O)NC(=O)C2CCCCC2)cc1,inactive: 10%
18,O=C(Nc1ccc(Br)cn1)c1ccc(Cl)s1,inactive: 5.56%
19,CC(=O)N1CCN(C(=O)C2CCN(S(=O)(=O)c3ccccc3C(F)(F)F)CC2)CC1,inactive: 3.9%
20,Cc1ccc(NC(=O)CSc2nc(N)c3c4c(sc3n2)CSC(C)(C)C4)cc1,inactive: 13%
21,CC(C)Cn1cc(C(=O)NCCCN2CCC(C)CC2)c2c3ccccc3n(C)c2c1=O,inactive: 14.1%
22,O=C(COc1ccc(S(=O)(=O)N2CCOCC2)cc1)NCC1CCCO1 (stereo not drawn),inactive: 2.49%
23,COc1ccc(NS(=O)(=O)c2ccc(Cl)c(C(=O)O)c2)cc1S(=O)(=O)N1CCCCC1,inactive: 7.67%

row,Structure (SMILES),growth rescue (activation)
1,COc1ccc(N2CCN(C(=O)CSc3nnc(-c4ccco4)n3C)CC2)cc1,inactive: -4.63%
2,Cc1cccc(N2CC(C(=O)Nc3ccc(S(=O)(=O)N4CCOCC4)cc3)CC2=O)c1 (stereo not drawn),inactive: 2.27%
3,CC(CC(=O)Nc1ccccc1)NCCCN1CCCC1=O (stereo not drawn),inactive: 4.79%
4,COc1ccc(S(=O)(=O)Nc2c(C)c(C)cc3c2ncn3C)cc1,inactive: -3.04%
5,CCCCn1c(N)c(N(CC)C(=O)c2ccc(Cl)c(Cl)c2)c(=O)[nH]c1=O,inactive: 1.52%
6,C=CCn1c(-c2ccccc2OC)n[nH]c1=S,inactive: -22.8%
7,CCc1ccc(NC(=O)c2sc3nc(C)nc(N4CCN(c5ccccn5)CC4)c3c2C)cc1,inactive: 9.98%
8,O=C(NCCc1ccccc1)C(=O)Nc1nccs1,inactive: 21.3%
9,Brc1ccc(-c2cn3c(n2)SCC3)cc1,inactive: 4.11%
10,CS(=O)(=O)N(CC(=O)NCC1CCCO1)c1cc(Cl)ccc1Cl (stereo not drawn),inactive: -22.8%
11,CCOC(=O)C1=NOC(CN(c2ccccc2)S(=O)(=O)c2ccc(Cl)cc2)C1 (stereo not drawn),inactive: 21.9%
12,CCOc1cc(NC(=S)NCCCOC)c(OCC)cc1NC(=O)c1cccs1,inactive: 23.2%
13,Cn1c(=O)c2c(nc(-n3ccnc3)n2C)n(C)c1=O,inactive: 1.93%
14,Cc1cc(C)c(C(=O)Nc2cccc(F)c2)c(Cl)n1,inactive: -3.71%
15,CCOC(=O)C1CCN(C(=S)Nc2cc(C)ccc2C)CC1,inactive: 16.8%
16,OCCCN=c1cc(-c2ccccc2)oc2ccc(Cl)cc12,inactive: 27.5%
17,Cc1ccc(C)c(N(CC(=O)NC(C)(C)C)C(=O)CNC(=O)c2cccs2)c1,inactive: -3.65%
18,O=C(NCC1CCCO1)C(c1ccc(F)cc1)N(Cc1ccc2c(c1)OCO2)C(=O)c1ccc(CN2CCOCC2)o1 (stereo not drawn),inactive: 12.8%
19,O=C1c2ccccc2C(=O)N1CCCCSc1nc2ccccc2c(=O)n1CCCN1CCOCC1,inactive: -3.44%
20,CCCc1cc2c(=O)c(-c3cscn3)c(C(=O)OCC)oc2cc1O,inactive: 16.6%
21,Cc1ccc(C(=O)NC2CCN(CC(=O)Nc3ccccc3Cl)CC2)cc1,inactive: -6.68%
22,NS(=O)(=O)c1cccc(NC(=O)Nc2ccc(Cl)cc2)c1,inactive: 7.65%
